The source of these data is the antibiotic and cytotoxicity screens of Wong et al. (2023).

The structures appear in SMILES notation. This is one part of the list.

The subject of one experiment is HSkMC. Put plainly: cytotoxicity call (relative viability < 0.9). The settings on record: 10 µM.
The next experiment concerns HepG2. Put plainly: cytotoxicity call (relative viability < 0.9). The settings on record: 10 µM.
For a further experiment, the system named is S. aureus RN4220. Put plainly: growth inhibition call (relative growth <= 0.2). The conditions noted are these: 50 µM.

On to `COc1ccc(-c2cnc3c(c2)C(=O)N([C@@H](C)CO)C[C@H](C)[C@H](CN(C)C(=O)Cc2cccnc2)O3)cc1`, for which the cytotoxicity call in the experiment on HSkMC and with HepG2 was “inactive” in each case. Besides, the growth inhibition call in the experiment on S. aureus RN4220 is “inactive”.

As to `C[C@H]1CCCCO[C@H](CN(C)S(=O)(=O)c2ccccc2)[C@@H](C)CN([C@@H](C)CO)C(=O)c2cc(NC(=O)Nc3ccc4c(c3)OCO4)ccc2O1`, the cytotoxicity call with HSkMC was “inactive”. Further, the cytotoxicity call with HepG2 was “active”. The growth inhibition call in the experiment on S. aureus RN4220 is “inactive”.

For the compound `Cc1noc(C)c1NC(=O)Nc1cccc2c1O[C@@H](CN(C)Cc1ccc(Oc3ccccc3)cc1)[C@@H](C)CN([C@H](C)CO)C2=O`, the cytotoxicity call in the experiment on HSkMC and with HepG2 was “inactive” throughout. The growth inhibition call with S. aureus RN4220 is “inactive”.

With `C[C@@H]1CCCCO[C@H](CN(C)Cc2ccc(C(=O)O)cc2)[C@@H](C)CN([C@H](C)CO)C(=O)c2cc(NS(=O)(=O)c3cccs3)ccc2O1`, the cytotoxicity call with HSkMC and in the experiment with HepG2 was “inactive” each time. In the experiment on S. aureus RN4220, the growth inhibition call is “inactive”.

As to `CCN1CCN(c2cc3c(cc2F)c(=O)c(C(=O)O)cn3C2CC2)CC1`, the cytotoxicity call with HSkMC and in the experiment with HepG2 was “inactive” each time. The growth inhibition call with S. aureus RN4220 is “active”.

For the compound `CC(C)N1CC=C[C@@]23O[C@@H]4C=CCOC(=O)[C@@H]4[C@H]2C(=O)N([C@@H](C)CO)[C@@H]3C1=O`, the cytotoxicity call in the experiment with HSkMC and in the experiment with HepG2 was “inactive” each time. Also, the growth inhibition call in the experiment with S. aureus RN4220 is “inactive”.

With `NC(=O)CCCCC(N)=O`, the cytotoxicity call in the experiment with HSkMC and in the experiment with HepG2 was “inactive” in each case. Also, the growth inhibition call in the experiment with S. aureus RN4220 was “inactive”.

Take `COCC#Cc1cnc2c(c1)C(=O)N([C@@H](C)CO)C[C@H](C)[C@@H](CN(C)C(=O)CCN1CCCCC1)O2`: the cytotoxicity call in the experiment on HSkMC and in the experiment on HepG2 was “inactive” in each case. The growth inhibition call in the experiment with S. aureus RN4220 was “inactive”.

In the case of `C=CCC[C@H](Cc1ccc(F)cc1)C(=O)O[C@H](CNC(=O)[C@@H](CC=C)CC(=O)N[C@H](CO)Cc1ccccc1)c1ccccc1`, the cytotoxicity call in the experiment with HSkMC was “active”. Besides, the cytotoxicity call in the experiment with HepG2 is “inactive”. For the same compound, the growth inhibition call in the experiment with S. aureus RN4220 is “inactive”.

Consider `COc1ccccc1NC(=O)N(C)C[C@H]1Oc2ncc(C#CC(C)C)cc2C(=O)N([C@H](C)CO)C[C@@H]1C`, for which the cytotoxicity call with HSkMC and with HepG2 was “inactive” each time. In the experiment with S. aureus RN4220, the growth inhibition call is “inactive”.

Regarding `CC(C)NC(=O)N(C)C[C@H]1Oc2ccc(NS(=O)(=O)c3cn(C)cn3)cc2CC(=O)N([C@H](C)CO)C[C@H]1C`, the cytotoxicity call in the experiment with HSkMC and in the experiment with HepG2 was “inactive” throughout. In the experiment with S. aureus RN4220, the growth inhibition call was “inactive”.

For the compound `C[C@H](CO)N1C[C@H](C)[C@H](CN(C)C(=O)Nc2ccc3c(c2)OCO3)Oc2c(NC(=O)c3cnccn3)cccc2C1=O`, the cytotoxicity call in the experiment with HSkMC and in the experiment on HepG2 was “inactive” throughout. In the experiment with S. aureus RN4220, the growth inhibition call was “inactive”.

Regarding `C[C@@H]1CCCCO[C@@H](CN(C)Cc2ccc(Cl)c(Cl)c2)[C@@H](C)CN([C@H](C)CO)C(=O)c2cc(NC(=O)Nc3ccc4c(c3)OCO4)ccc2O1`, the cytotoxicity call in the experiment with HSkMC and in the experiment on HepG2 was “inactive” in each case. In addition, in the experiment on S. aureus RN4220, the growth inhibition call was “inactive”.

Consider `C[C@@H]1CN([C@@H](C)CO)C(=O)Cc2cc(NC(=O)Cn3cnnn3)ccc2O[C@@H]1CN(C)C(=O)Nc1cccc2ccccc12`, for which the cytotoxicity call in the experiment with HSkMC and in the experiment with HepG2 was “inactive” throughout. Besides, in the experiment with S. aureus RN4220, the growth inhibition call was “inactive”.

As for `Cc1cc(C(=O)Nc2cccc3c2O[C@@H](CN(C)Cc2ccccc2)[C@@H](C)CN([C@@H](C)CO)C3=O)n(C)n1`, the cytotoxicity call in the experiment on HSkMC and in the experiment on HepG2 was “inactive” throughout. Also, the growth inhibition call in the experiment on S. aureus RN4220 was “inactive”.

With `C[C@H]1CN([C@@H](C)CO)C(=O)c2cccc(NS(=O)(=O)c3cn(C)cn3)c2O[C@@H]1CN(C)Cc1ccc(C(=O)Nc2ccccc2N)cc1`, the cytotoxicity call in the experiment on HSkMC and in the experiment with HepG2 was “inactive” throughout. The growth inhibition call with S. aureus RN4220 is “inactive”.

Regarding `COc1ccc(S(=O)(=O)N(C)C[C@H]2Oc3c(NC(=O)Nc4cccc5ccccc45)cccc3C(=O)N([C@@H](C)CO)C[C@@H]2C)cc1`, the cytotoxicity call in the experiment with HSkMC is “inactive”. In addition, the cytotoxicity call with HepG2 was “active”. Further, in the experiment on S. aureus RN4220, the growth inhibition call was “inactive”.

On to `COCC#Cc1ccc2c(c1)O[C@H](CN(C)C(=O)Nc1ccc(OC)cc1)[C@H](C)CN([C@@H](C)CO)S2(=O)=O`, for which the cytotoxicity call in the experiment on HSkMC and with HepG2 was “inactive” throughout. Further, the growth inhibition call in the experiment with S. aureus RN4220 is “inactive”.

For `C[C@@H]1CCCCO[C@@H](CN(C)C(=O)Nc2ccccc2)[C@@H](C)CN([C@@H](C)CO)C(=O)c2cc(NC(=O)Nc3ccc4c(c3)OCO4)ccc2O1`, the cytotoxicity call with HSkMC and in the experiment with HepG2 was “inactive” each time. In addition, in the experiment on S. aureus RN4220, the growth inhibition call was “inactive”.

As to `C[C@@H]1CCCCO[C@H](CN(C)CC2CC2)[C@H](C)CN([C@H](C)CO)C(=O)c2cc(NC(=O)c3ccccc3)ccc2O1`, the cytotoxicity call in the experiment on HSkMC and in the experiment with HepG2 was “inactive” each time. In the experiment with S. aureus RN4220, the growth inhibition call is “inactive”.

`Cc1ccc(S(=O)(=O)Nc2ccc3c(c2)C(=O)N([C@@H](C)CO)C[C@@H](C)[C@H](CN(C)S(=O)(=O)c2ccc(F)cc2)OCCCC[C@H](C)O3)cc1`: the cytotoxicity call in the experiment on HSkMC and with HepG2 was “inactive” each time. Also, the growth inhibition call with S. aureus RN4220 was “inactive”.

In the case of `C[C@H](CO)N1C[C@H](C)[C@H](CN(C)S(C)(=O)=O)Oc2cc(-c3cccc(F)c3)ccc2S1(=O)=O`, the cytotoxicity call in the experiment on HSkMC and in the experiment on HepG2 was “inactive” each time. In addition, the growth inhibition call in the experiment on S. aureus RN4220 was “inactive”.

For the compound `C[C@H]1CN([C@@H](C)CO)C(=O)c2cccc(NC(=O)C3CCCCC3)c2O[C@@H]1CN(C)Cc1ccc(Cl)c(Cl)c1`, in the experiment on HSkMC, the cytotoxicity call was “inactive”. Besides, the cytotoxicity call with HepG2 is “active”. Further, in the experiment with S. aureus RN4220, the growth inhibition call is “inactive”.

As for `COc1ccc(NC(=O)Nc2ccc3c(c2)C(=O)N([C@@H](C)CO)C[C@H](C)[C@@H](CN(C)Cc2ccc(-c4ccccc4)cc2)O3)cc1`, the cytotoxicity call in the experiment on HSkMC (human skeletal muscle cells) was “active”. Also, in the experiment on HepG2, the cytotoxicity call was “inactive”. Also, the growth inhibition call in the experiment with S. aureus RN4220 is “inactive”.
